Measurements: the supplement of paper PMC12217912
This is one part of the list. The full chains were built here from the parent and the listed change. Values near 0.05 are background.

B1: TEV protease; numbered along this chain (parent)
chain: MGESLFKGPRDYNPISSSICHLTNESDGHTTSLYGIGFGPFIITNKHLFRRNNGTLVVQSLHGVFKVKDTTTLQQHLVDGRDMIIIRMPKDFPPFPQKLKFREPQREERICLVTTNFQTKSMSSMVSDTSCTFPSGDGIFWKHWIQTKDGQCGSPLVSTRDGFIVGIHSASNFTNTNNYFTSVPKNFMELLTNQEAQQWVSGWRLNADSVLWGGHKVFMVKPEEPFQPVKEATQL

Variants of: B1
Experiment: raw area under fraction-flipped curve 0-4 h after induction (AUC4h, not background-subtracted), DNA-recorder readout of cleavage of the substrate (dimensionless); higher = more cleavage of the substrate by the protease variant
Conditions: temperature: 34 °C; time window: 0-4 h after rhamnose induction
Method: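 In vivo DNA recorder in E. coli TOP10(DE3) ΔrhaA at 34 °C. Each TEVp single-site mutant (parent TEVp 0) is paired with a single-site variant of the 7-mer TEVs (canonical ENLYFQ|S). The substrate sits between flexible linkers in a Bxb1-sfGFP-TEVs-SsrA fusion, so cleavage stabilises Bxb1 and speeds flipping of a recombination array, read by NGS. The value is the raw area under the fraction-flipped curve over 0-4 h after rhamnose induction (AUC4h), with ≥20 reads per time point. It is not background-subtracted; inactive controls average about 0.047.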
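Further: Bxb1 expression induced with 0.2% (w/v) L-rhamnose at OD600 near 0.5, cultures sampled hourly, flipped fraction per protease–substrate barcode pair counted by paired-end Illumina sequencing.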

Row | Variant | area with substrate ENLYFAS | area with substrate ENLYFCS | area with substrate ENLYFDS | area with substrate ENLYFES | area with substrate ENLYFHS | area with substrate ENLYFIS | area with substrate ENLYFKS | area with substrate ENLYFLS | area with substrate ENLYFMS | area with substrate ENLYFNS | area with substrate ENLYFPS | area with substrate ENLYFRS | area with substrate ENLYFSS | area with substrate ENLYFVS | area with substrate ENLYFWS | area with substrate ENLYFYS | area with substrate ENLYFFS | area with substrate ENLYFGS | area with substrate ENLYFTS
1 | MGESLFKGPRDYNPISSSICHLTNESDGHTTSLYGIGFGPFIITNKHLFRRNNGTLVVQSLHGVFKVKDTTTLQQHLVDGRDMIIIRMPKDFPPFPQKLKFREPQQEERICLVTTNFQTKSMSSMVSDTSCTFPSGDGIFWKHWIQTKDGQCGSPLVSTRDGFIVGIHSASNFTNTNNYFTSVPKNFMELLTNQEAQQWVSGWRLNADSVLWGGHKVFMVKPEEPFQPVKEATQL [R106Q] | 0.0542 | 0.0557 | 0.0476 | 0.0646 | 0.0442 | 0.0553 | 0.0604 | 0.0669 | 0.0577 | 0.0691 | 0.0615 | 0.0694 | 0.0739 | 0.0397 | 0.0566 | 0.0603 | – | – | –
2 | MGESLFKGPRDYNPISSSICHLTNESDGHTTSLYGIGFGPFIITNKHLFRRNNGTLVVQSLHGVFKVKDTTTLQQHLVDGRDMIIIRMPKDFPPFPQKLKFREPQREQRICLVTTNFQTKSMSSMVSDTSCTFPSGDGIFWKHWIQTKDGQCGSPLVSTRDGFIVGIHSASNFTNTNNYFTSVPKNFMELLTNQEAQQWVSGWRLNADSVLWGGHKVFMVKPEEPFQPVKEATQL [E108Q] | 0.0476 | 0.0307 | 0.0523 | 0.0581 | – | 0.0602 | – | – | – | 0.0473 | 0.0506 | 0.0567 | 0.0502 | 0.0479 | – | – | 0.0712 | 0.0652 | 0.0504
3 | MGESLFKGPRDYNPISSSICHLTNESDGHTTSLYGIGFGPFIITNKHLFRRNNGTLVVQSLHGVFKVKDTTTLQQHLVDGRDMIIIRMPKDFPPFPQKLKFREPQREERICAVTTNFQTKSMSSMVSDTSCTFPSGDGIFWKHWIQTKDGQCGSPLVSTRDGFIVGIHSASNFTNTNNYFTSVPKNFMELLTNQEAQQWVSGWRLNADSVLWGGHKVFMVKPEEPFQPVKEATQL [L112A] | 0.057 | 0.0431 | – | 0.0586 | 0.0397 | 0.0543 | 0.0667 | 0.0574 | 0.0654 | 0.0667 | 0.0531 | 0.0894 | – | 0.0585 | 0.0543 | 0.0608 | 0.0643 | 0.0547 | 0.0598
4 | MGESLFKGPRDYNPISSSICHLTNESDGHTTSLYGIGFGPFIITNKHLFRRNNGTLVVQSLHGVFKVKDTTTLQQHLVDGRDMIIIRMPKDFPPFPQKLKFREPQREERICDVTTNFQTKSMSSMVSDTSCTFPSGDGIFWKHWIQTKDGQCGSPLVSTRDGFIVGIHSASNFTNTNNYFTSVPKNFMELLTNQEAQQWVSGWRLNADSVLWGGHKVFMVKPEEPFQPVKEATQL [L112D] | 0.0576 | 0.0056 | – | 0.04 | – | 0.0483 | 0.0648 | – | 0.0607 | 0.0559 | – | 0.0759 | – | 0.0549 | – | – | – | 0.0466 | –
5 | MGESLFKGPRDYNPISSSICHLTNESDGHTTSLYGIGFGPFIITNKHLFRRNNGTLVVQSLHGVFKVKDTTTLQQHLVDGRDMIIIRMPKDFPPFPQKLKFREPQREERICGVTTNFQTKSMSSMVSDTSCTFPSGDGIFWKHWIQTKDGQCGSPLVSTRDGFIVGIHSASNFTNTNNYFTSVPKNFMELLTNQEAQQWVSGWRLNADSVLWGGHKVFMVKPEEPFQPVKEATQL [L112G] | 0.0518 | – | 0.0454 | 0.0617 | – | 0.0486 | – | – | 0.0522 | 0.0636 | 0.0667 | – | 0.0521 | 0.0684 | 0.064 | – | 0.0797 | 0.0616 | 0.0526
6 | MGESLFKGPRDYNPISSSICHLTNESDGHTTSLYGIGFGPFIITNKHLFRRNNGTLVVQSLHGVFKVKDTTTLQQHLVDGRDMIIIRMPKDFPPFPQKLKFREPQREERICKVTTNFQTKSMSSMVSDTSCTFPSGDGIFWKHWIQTKDGQCGSPLVSTRDGFIVGIHSASNFTNTNNYFTSVPKNFMELLTNQEAQQWVSGWRLNADSVLWGGHKVFMVKPEEPFQPVKEATQL [L112K] | 0.0567 | 0.0622 | – | 0.0753 | 0.0509 | 0.0607 | 0.0601 | 0.0662 | 0.0688 | 0.0707 | 0.0495 | 0.05 | 0.0535 | 0.0643 | 0.058 | 0.0581 | 0.0721 | – | 0.0562
7 | MGESLFKGPRDYNPISSSICHLTNESDGHTTSLYGIGFGPFIITNKHLFRRNNGTLVVQSLHGVFKVKDTTTLQQHLVDGRDMIIIRMPKDFPPFPQKLKFREPQREERICMVTTNFQTKSMSSMVSDTSCTFPSGDGIFWKHWIQTKDGQCGSPLVSTRDGFIVGIHSASNFTNTNNYFTSVPKNFMELLTNQEAQQWVSGWRLNADSVLWGGHKVFMVKPEEPFQPVKEATQL [L112M] | 0.0688 | 0.0646 | – | – | – | 0.055 | 0.0606 | 0.0683 | 0.0667 | 0.0581 | – | 0.0485 | – | – | 0.0589 | – | – | – | –
8 | MGESLFKGPRDYNPISSSICHLTNESDGHTTSLYGIGFGPFIITNKHLFRRNNGTLVVQSLHGVFKVKDTTTLQQHLVDGRDMIIIRMPKDFPPFPQKLKFREPQREERICTVTTNFQTKSMSSMVSDTSCTFPSGDGIFWKHWIQTKDGQCGSPLVSTRDGFIVGIHSASNFTNTNNYFTSVPKNFMELLTNQEAQQWVSGWRLNADSVLWGGHKVFMVKPEEPFQPVKEATQL [L112T] | 0.0611 | 0.0586 | – | 0.0651 | 0.0605 | 0.0648 | 0.0713 | 0.0597 | 0.0389 | 0.07 | 0.0723 | 0.0657 | 0.0583 | 0.0906 | 0.0692 | 0.0624 | 0.067 | – | 0.0571
9 | MGESLFKGPRDYNPISSSICHLTNESDGHTTSLYGIGFGPFIITNKHLFRRNNGTLVVQSLHGVFKVKDTTTLQQHLVDGRDMIIIRMPKDFPPFPQKLKFREPQREERICVVTTNFQTKSMSSMVSDTSCTFPSGDGIFWKHWIQTKDGQCGSPLVSTRDGFIVGIHSASNFTNTNNYFTSVPKNFMELLTNQEAQQWVSGWRLNADSVLWGGHKVFMVKPEEPFQPVKEATQL [L112V] | 0.0472 | 0.0983 | 0.0562 | 0.0569 | 0.0528 | 0.0554 | – | 0.0594 | 0.0608 | – | 0.0606 | 0.0775 | 0.0469 | 0.0553 | – | – | 0.0619 | – | 0.0625
